Laboratory results published in publication PMC4336329 (PLoS ONE, 2015).
Hit rate of the full screen: of about 310,000 compounds, about 14,000 (4.5%) showed an effect of 50% or more. The effect is printed as a negative number. Some of the results follow.

The compounds below were run against human ether-à-go-go-related gene (hERG) potassium channel (human, UniProt Q12809) (assay: primary screen, population patch clamp on CHO cells stably expressing hERG).
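Note: peak tail current of the secondary pulse compared with the same well before compound.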

Sequence of human ether-à-go-go-related gene (hERG) potassium channel (Q12809 whole entry, looked up): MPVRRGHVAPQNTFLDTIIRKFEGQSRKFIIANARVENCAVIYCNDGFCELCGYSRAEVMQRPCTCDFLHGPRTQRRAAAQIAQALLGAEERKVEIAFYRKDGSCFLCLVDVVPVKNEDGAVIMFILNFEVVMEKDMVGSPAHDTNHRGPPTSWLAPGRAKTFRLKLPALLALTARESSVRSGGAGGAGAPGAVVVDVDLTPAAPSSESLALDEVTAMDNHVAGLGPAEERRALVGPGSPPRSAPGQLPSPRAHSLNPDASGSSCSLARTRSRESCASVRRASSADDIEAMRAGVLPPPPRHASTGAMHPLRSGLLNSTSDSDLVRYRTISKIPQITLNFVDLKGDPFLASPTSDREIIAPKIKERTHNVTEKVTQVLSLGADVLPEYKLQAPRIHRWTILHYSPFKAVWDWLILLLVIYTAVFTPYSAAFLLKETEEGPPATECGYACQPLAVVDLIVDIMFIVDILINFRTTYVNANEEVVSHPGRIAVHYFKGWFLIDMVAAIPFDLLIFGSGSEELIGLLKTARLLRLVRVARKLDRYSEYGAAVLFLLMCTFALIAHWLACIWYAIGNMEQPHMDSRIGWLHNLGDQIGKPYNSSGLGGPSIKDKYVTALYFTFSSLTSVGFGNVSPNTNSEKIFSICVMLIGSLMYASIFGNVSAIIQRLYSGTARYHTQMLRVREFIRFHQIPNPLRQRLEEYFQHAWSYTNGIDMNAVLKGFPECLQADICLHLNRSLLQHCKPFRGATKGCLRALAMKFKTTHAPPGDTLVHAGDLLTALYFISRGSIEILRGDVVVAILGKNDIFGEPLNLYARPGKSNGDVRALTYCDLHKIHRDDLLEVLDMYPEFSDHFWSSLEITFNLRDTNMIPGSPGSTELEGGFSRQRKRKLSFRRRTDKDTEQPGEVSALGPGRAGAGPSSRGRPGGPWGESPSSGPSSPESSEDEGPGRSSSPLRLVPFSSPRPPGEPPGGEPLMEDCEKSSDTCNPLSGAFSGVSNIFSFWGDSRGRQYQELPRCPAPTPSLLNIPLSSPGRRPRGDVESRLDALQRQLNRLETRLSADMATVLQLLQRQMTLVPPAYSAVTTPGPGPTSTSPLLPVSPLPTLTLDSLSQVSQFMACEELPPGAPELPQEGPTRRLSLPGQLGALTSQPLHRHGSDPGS

Row | SMILES | hERG current change (%, negative = inhibition) at 10uM
1 | Cn1c(=O)c([N+](=O)[O-])c(-n2ccnc2)c2ccccc21 | -7.68%
2 | CCOc1ccc(CCNC(=O)C2CC(=O)N(Cc3ccc(C)cc3)C2)cc1OCC (centres unmarked) | -2.17%
3 | O=C(NCc1ccco1)C(=O)NCC(c1ccco1)N1CCOCC1 (centres unmarked) | 13%
4 | Cc1cccc(NC(=O)C2CCN(c3ncnc4c3nc3n4CCCCC3)CC2)n1 | -29.5%
5 | Cc1ccccc1C(=O)Nc1nc2n(n1)C(c1ccccc1)CC(=O)N2 (centres unmarked) | -10.4%
6 | Cc1ccc(C)c(N2CCN(CC3CCCCC3)CC2)c1 | 11.3%
7 | N#Cc1ccc(C(=O)Nc2cc(-c3ccccc3)nn2-c2ccccc2)cc1 | -41.8%
8 | CCN(CC(=O)Nc1ccc2c(c1)OCCO2)S(=O)(=O)c1cccs1 | -4.54%
9 | CC(=O)NC1(C(F)(F)F)C(=O)N(Cc2ccccc2)C2=C1C(=O)CC(C)(C)C2 (centres unmarked) | 26.4%
10 | O=C(O)CC1(CC(=O)Nc2ccccc2N2CCOCC2)CCCC1 | 10.8%
11 | CCOc1ccccc1NC(=O)CSc1nnc(-c2ccncc2)o1 | -6.16%
12 | Cc1ccccc1CNC(=O)CN1C(=O)c2ccccc2S1(=O)=O | -0.629%
13 | COc1ccc(C)cc1N(C(=O)Cn1nnc(-c2ccc(C)o2)n1)C(C(=O)NC1CCCC1)c1ccncc1 (centres unmarked) | 10%
14 | O=C(Nc1ccc(N2CCOCC2)c(Cl)c1)c1cc(F)c(F)cc1Cl | -20.9%
15 | CC(C)OP(=O)(OC(C)C)C(Nc1ccccc1)c1cccnc1 (centres unmarked) | 6.73%
16 | Cc1cc(C)n2nc(SCn3nnc4ccccc4c3=O)nc2n1 | 6.26%
17 | CCC(=O)Nc1nnc(SCC(=O)Nc2ccc3c(c2)OCO3)s1 | 14.3%
18 | O=C(/C=C/c1ccc(Br)o1)Nc1nccs1 | 4.09%
19 | CC(=O)CCC(=O)N1CCC(n2nccc2NC(=O)c2ccccc2C)CC1 | 9.06%
20 | COc1ccc(/C=C2/N=C3CCCCCN3C2=O)cc1 | 3.13%
21 | CC1CCCCN1CCCNc1ccc(C(CC(N)=O)NC(=O)Cc2cccc3ccccc23)cc1[N+](=O)[O-] (centres unmarked) | -14.6%
22 | CCOP(=O)(C#Cc1ccccc1)C(O)c1ccc(Br)cc1 (centres unmarked) | -28.3%

Row | SMILES | hERG current change (%, negative = inhibition) at 10uM
23 | O=C(CN1CCCCCC1)Nc1ccc(Br)cn1 | -20.7%
24 | Cc1cc(C)c(CNC(=O)c2cc(C3CC3)nc3c2cnn3C(C)C)c(=O)[nH]1 | -35.5%
25 | COc1ccc([N+](=O)[O-])cc1N(CC(=O)NCc1ccco1)S(C)(=O)=O | 11.9%
26 | COc1ccc(C[C@H]2CN3C(=NC[C@@H]3Cc3ccccc3)N2CCNC(=O)CCC2CCCCC2)cc1 | -73.7%
27 | O=C(Nc1ccc(C2CCCCC2)cc1)C1CCCN(c2ncccn2)C1 (centres unmarked) | -7.76%
28 | C=C1CC2C=C(NC(C)=O)CC(C1)C2 (centres unmarked) | 1.9%
29 | COc1ccc(C(CCNCc2ccc(OC(C)C)cc2)C(C)C)cc1 (centres unmarked) | -39%
30 | O=C(/C=C\c1ccco1)Nc1cc([N+](=O)[O-])ccc1F | -5.06%
31 | COc1ccccc1OC1OC2COC(c3ccco3)OC2C(O)C1NC(C)=O (centres unmarked) | -1.85%
32 | CN(Cc1ccccc1)C(=O)COC(=O)c1ccc(=O)n(Cc2ccccc2)n1 | -25.8%
33 | N#CCCN(C(=O)COC(=O)C1CCN(c2ccc(C(F)(F)F)cn2)CC1)c1ccc(F)cc1 | -40.5%
34 | CC(=O)c1c(C)[nH]c(C(=O)Nc2cccc(C(F)(F)F)c2)c1C | 14.8%
35 | CC(C)CCNC(=O)c1cccnc1Sc1ccccc1 | 20.9%
36 | Cc1cccc(N(CC(=O)NCc2ccc(F)cc2)C(=O)c2ccco2)c1 | -10.6%
37 | N#Cc1ccc(C(c2nnnn2C2CCCC2)N2CCC(Cc3ccccc3)CC2)cc1 (centres unmarked) | 14.3%
38 | CN(C)S(=O)(=O)c1cccc(NC(=O)c2c[nH]c3ccccc23)c1 | 19.9%
39 | Cc1cccc(NC(=O)[C@H](Cc2ccccc2)NC(=O)OCc2ccccc2)c1 | 6.44%
40 | COc1ccccc1NC(=O)Cn1nnc(-c2ccccc2NC(=O)c2cccs2)n1 | 1.34%
41 | N#Cc1ccc(Oc2cccc3cccnc23)c([N+](=O)[O-])c1 | -79.1%
42 | O=C(CN1CC=C(c2ccccc2)CC1)Nc1c(Cl)cccc1Cl | 4.21%
43 | O=C(NCC1CCCO1)C(=O)N/N=C/c1cccc(Cl)c1 (centres unmarked) | 12.1%
44 | COc1ncnc(-c2ccccc2)c1-c1ccccc1 | 1.86%
